Screen size: about 310,000 compounds; about 2,200 (0.71%) showed an effect of 50% or more. Effects have a minus sign here. The list shows a part of the results.

The target of the assay is human ether-à-go-go-related gene (hERG) potassium channel (human, UniProt Q12809). As to the kind of experiment: primary screen, population patch clamp on CHO cells stably expressing hERG.
Sequence of human ether-à-go-go-related gene (hERG) potassium channel (Q12809 whole entry, looked up): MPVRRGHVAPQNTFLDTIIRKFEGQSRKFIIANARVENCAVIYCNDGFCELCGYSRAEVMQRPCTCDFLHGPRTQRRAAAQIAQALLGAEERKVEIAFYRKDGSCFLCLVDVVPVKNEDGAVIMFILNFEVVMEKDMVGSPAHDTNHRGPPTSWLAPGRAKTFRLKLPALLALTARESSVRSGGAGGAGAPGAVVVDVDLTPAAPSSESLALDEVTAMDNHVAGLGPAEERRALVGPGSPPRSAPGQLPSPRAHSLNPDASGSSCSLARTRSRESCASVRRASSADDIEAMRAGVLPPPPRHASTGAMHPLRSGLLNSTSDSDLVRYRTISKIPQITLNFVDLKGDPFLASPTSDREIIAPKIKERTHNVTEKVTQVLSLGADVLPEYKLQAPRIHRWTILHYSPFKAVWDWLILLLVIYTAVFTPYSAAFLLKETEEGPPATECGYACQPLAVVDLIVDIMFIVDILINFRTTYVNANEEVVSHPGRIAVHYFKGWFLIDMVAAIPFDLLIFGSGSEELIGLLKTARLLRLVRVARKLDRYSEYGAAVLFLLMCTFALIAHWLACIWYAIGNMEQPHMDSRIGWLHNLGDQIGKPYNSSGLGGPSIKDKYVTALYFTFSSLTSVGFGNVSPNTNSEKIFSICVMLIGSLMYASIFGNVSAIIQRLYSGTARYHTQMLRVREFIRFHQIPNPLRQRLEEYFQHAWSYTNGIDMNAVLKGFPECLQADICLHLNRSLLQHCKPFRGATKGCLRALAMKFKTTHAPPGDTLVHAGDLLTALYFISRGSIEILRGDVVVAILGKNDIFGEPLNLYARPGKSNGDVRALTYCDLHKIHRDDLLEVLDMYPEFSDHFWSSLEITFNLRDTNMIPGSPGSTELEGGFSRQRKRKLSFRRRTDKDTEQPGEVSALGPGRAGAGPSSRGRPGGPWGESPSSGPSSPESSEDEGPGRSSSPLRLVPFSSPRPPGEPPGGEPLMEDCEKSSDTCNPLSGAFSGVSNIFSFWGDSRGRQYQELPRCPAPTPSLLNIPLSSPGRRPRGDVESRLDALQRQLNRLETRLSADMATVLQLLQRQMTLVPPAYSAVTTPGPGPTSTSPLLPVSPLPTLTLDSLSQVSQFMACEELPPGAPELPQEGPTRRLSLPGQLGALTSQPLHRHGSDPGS
Regarding `CCOC(=O)c1ccc(-c2cccc(C(F)(F)F)c2)nc1C`, the “hERG current change (%, negative = inhibition) at 1uM” value turned out to be 12.7%.
The value for `Cc1ccc(N2C(=O)N(CC(=O)Nc3cccc([N+](=O)[O-])c3C)C(=O)C2C)cc1` (stereo not drawn) was -5.12%.
For the molecule `CN(CCOc1ccccc1)CC(=O)Nc1cc([N+](=O)[O-])ccc1Cl`, the “hERG current change (%, negative = inhibition) at 1uM” value is 14.5%.
In the case of `C=CCNCCCCOc1ccc(Br)cc1C.O=C(O)C(=O)O` it was -10.4%; in that of `CCOC(=O)N1CCN(C(=O)CCc2c(C)nc3c(c(C)nn3-c3ccc(C)c(C)c3)c2C)CC1`, -3.47%.
In the case of `O=C(NCC1CCCO1)c1ccccc1` (stereo not drawn) it was 12.2%; in that of `CC(=O)Nc1ccc(Br)c2ccccc12`, 9.64%.
As for `CCC1CCCCN1C(=O)CSc1nnc(-c2ccc3c(c2)OCCO3)o1` (stereo not drawn), the “hERG current change (%, negative = inhibition) at 1uM” value is given as -4.29%.
The value for `CC/C(C)=N/Oc1nc(C)cc(C)n1` was 15.8%; that for `O=c1cc(N2CCOCC2)c2ccccc2o1` was 1.41%.
For the molecule `COc1ccc(NC(=O)CN(C)C(=O)/C=C/c2cn(-c3ccccc3)nc2-c2cccs2)cc1`, the “hERG current change (%, negative = inhibition) at 1uM” value amounted to 3.2%.
Turning to `Cc1cc(C)c(NC(=O)CSc2nccn2C)c(C)c1`, the “hERG current change (%, negative = inhibition) at 1uM” value is reported as 25.7%.
In the case of `NC(=NCCc1ccccc1)NS(=O)(=O)c1ccccc1F` it was 11.7%; in that of `Cc1ccc(-n2ncc3c2CCCC3NC(=O)c2ocnc2C)cc1C` (stereo not drawn), 10.4%.
In the case of `CC(C)CC(OC(=O)CC1Sc2ccccc2NC1=O)C(=O)NC1CCCC1` (stereo not drawn) it was 9.73%.
In the case of `Cc1cccc(N2CCN(C(=O)COc3ccc4c(c3)CCC4)CC2)c1C` it was -2.76%.
For `COCCCn1c(=O)/c(=C\c2ccccc2OC(F)F)s/c1=C(/C#N)C(=O)NC(C)C`, the “hERG current change (%, negative = inhibition) at 1uM” value is on record as 2.11%.
Regarding `COC(CNc1cc(=O)oc2ccccc12)OC`, the “hERG current change (%, negative = inhibition) at 1uM” value is 10.5%.
The value for `COc1cccc(-n2c(SCc3ccccn3)nc3c(c2=O)SCC3)c1` was -4.24%.
On to `COc1ccc(C2CC(c3cccs3)=NN2C(=O)CSc2nncn2C)cc1OC` (stereo not drawn), for which the “hERG current change (%, negative = inhibition) at 1uM” value is 12.2%.
The value for `Cc1c(C(=O)c2ccccc2)c2ccccc2n1C` was 9.56%; that for `CCS(=O)(=O)Nc1cccc(C2=NN(S(=O)(=O)CC)C(c3cccs3)C2)c1` (stereo not drawn) was 14.9%; that for `CC1=C(C(=O)Nc2cccnc2)C(c2cccnc2)n2ncnc2N1` (stereo not drawn) was -0.626%.
In the case of `O=C(Nc1ccc(F)c(F)c1)c1ccco1` it was 9%.
The value for `Cc1cc(=O)oc(C)c1C(=O)NCCc1ccccc1` was 16%; that for `CCC1Sc2ccc(S(=O)(=O)CCC(=O)Nc3cccc(Br)c3)cc2NC1=O` (stereo not drawn) was 15%.
With `COc1ccc(OC(=O)c2ccncc2)cc1`, the “hERG current change (%, negative = inhibition) at 1uM” value is on record as 4.76%.
The value for `O=C(CCC(=O)NNc1nc2ccccc2c2nc(-c3ccccc3)nn12)NCCCN1CCCC1=O` was 10.8%.
The value for `O=S(=O)(/N=C(\c1ccccc1)N1CCOCC1)c1cccs1` was 14.3%; that for `CCNC(=O)c1cc2c(=O)n3cccc(C)c3nc2n(CCc2ccccc2)c1=N` was -90.7%; that for `CCCc1cc(=O)[nH]c(NCCc2ccccc2)n1` was 16%.
In the case of `CCOC(=O)C1Nc2c(F)cc(C)cc2C2c3ccccc3CC12` (stereo not drawn), the “hERG current change (%, negative = inhibition) at 1uM” value was 7.94%.
In the case of `CCc1ccc(NC(=O)Cc2ccc(-n3cccc3)cc2)cc1` it was 7.74%.
In the case of `COc1cc(CN2CCN(Cc3cccc(OC)c3OC)CC2)cc(OC)c1`, the “hERG current change (%, negative = inhibition) at 1uM” value is 2.43%.
The value for `COCCCN1C(=O)c2ccc(C(=O)OCC(=O)N(C)c3ccccc3)cc2C1=O` was 8.71%; that for `CC(NC(=O)COC(=O)c1cn(-c2ccccc2)nc1-c1cccs1)c1ccccc1` (stereo not drawn) was 4.15%.
In the case of `Clc1ccc2nc(COc3ccccc3)[nH]c2c1` it was 14.4%; in that of `CCC1Oc2ccccc2N(CC(=O)Nc2ccccc2OC)C1=O` (stereo not drawn), -1.77%; in that of `NC(=O)c1ccc(Oc2ccc(Cl)cc2)c([N+](=O)[O-])c1`, 13.1%.
Take `O=[N+]([O-])/C(C(=C(Cl)Cl)N1CCOCC1)=C1\NCCO1`: the “hERG current change (%, negative = inhibition) at 1uM” value is 13.8%.
In the case of `Cc1cc(S(=O)(=O)Nc2c(C)ccc3nsnc23)ccc1F` it was 0.447%.
As for `COC(=O)c1ccc(N2CCN(CC(=O)c3ccc(C)cc3)CC2)c([N+](=O)[O-])c1`, the “hERG current change (%, negative = inhibition) at 1uM” value is reported as -16%.
Turning to `C=CCn1cnc2scc(-c3ccccc3)c2c1=O`, the “hERG current change (%, negative = inhibition) at 1uM” value was found to be 11.3%.
Regarding `CCC1S/C(=C(\C#N)C(=O)NCc2ccco2)N(c2ccc(Br)cc2)C1=O` (stereo not drawn), the “hERG current change (%, negative = inhibition) at 1uM” value worked out at 11.3%.
In the case of `C=Cn1c(C(=O)O)ccc1-c1ccc(OC)cc1` it was 12.5%.
In the case of `Cc1c(NC(=O)COC(=O)c2cc(-c3cccc4ccccc34)nc3ccccc23)c(=O)n(-c2ccccc2)n1C` it was 14.5%; in that of `CCOc1ccc(C(=O)Nc2ccc(NC(=O)c3ccco3)c(Cl)c2)cc1Cl`, 13.1%; in that of `CC(=O)N1CCN(S(=O)(=O)c2ccc3c(c2)CCC(=O)N3)CC1`, 5.44%.
The value for `CCOC(=O)c1cccc(N2C(=O)C3C4C=CC(CC4)C3C2=O)c1` (stereo not drawn) was 2.27%; that for `CC(=O)NC(CC(=O)Nc1ccc(S(=O)(=O)N2CCCCC2)cc1)c1ccccc1` (stereo not drawn) was 4.06%; that for `Cl.Clc1ccc2[nH]c3c(c2c1)CCNC3` was 16.4%.
As to `CCOC(=O)C1=C(COC(=O)Cc2ccc(Br)cc2)NC(=O)NC1C` (stereo not drawn), the “hERG current change (%, negative = inhibition) at 1uM” value came to 12.9%.
In the case of `Cc1nn(C)c(Sc2ccccn2)c1[N+](=O)[O-]` it was 8.59%.
The value for `O=C(Nc1nnc(SCc2ccc(F)cc2)s1)c1ccco1` was 13.6%; that for `Cc1nc2c3ccccc3nc(NNC(=O)CCC(=O)N3CCN(c4ccc(F)cc4)CC3)n2n1` was -3.88%; that for `COc1ccc(C2=NN(c3ccccc3)C(=O)/C2=C\c2ccc(O)c(OC)c2)cc1` was 12.5%.
The value for `CC(C)(C)c1ccc(/C=C(\C#N)C(=O)NC2CC2)cc1` was 12.8%; that for `C/C(=N/OCc1ccc(Br)cc1)c1ccccn1` was 6.84%.
As to `CN1CCC(N(C)C(=O)NC2CCCCC2)CC1`, the “hERG current change (%, negative = inhibition) at 1uM” value came to 10.9%.
The value for `O=C(CSc1nnc(NC(=O)C2CC2)s1)NCc1ccc(F)cc1` was 29.1%.
On to `COc1cccc(Cn2cc(-c3cccc(C(F)(F)F)c3)nn2)c1`, for which the “hERG current change (%, negative = inhibition) at 1uM” value is 13.8%.
The value for `O=c1[nH]c(CNCc2cccnc2)nc2ccccc12` was 16.9%; that for `CCCn1c(C)cc(C)c(C#N)c1=O` was 14.8%.
In the case of `COCCN(C(=O)COC(=O)C1(c2ccccc2)CC1)c1c(N)n(CC(C)C)c(=O)[nH]c1=O` it was 4.18%.
The value for `Cc1ccc(-c2noc(CCC(=O)Nc3ccccc3N3CCN(C)CC3)n2)cc1` was -1.05%; that for `Cc1cc2c(ncn2C(C)C)c(NS(=O)(=O)c2ccc(F)cc2)c1C` was 10%.
Take `COCCn1c(-c2ccccc2)cnc1SCC(=O)Nc1cccc2ccccc12`: the “hERG current change (%, negative = inhibition) at 1uM” value was -0.771%.
The value for `Cc1cc(N2CCN(Cc3ccc4c(c3)OCO4)CC2)n2ncnc2n1` was 6.24%; that for `Cc1ccc(C(=O)NN2C(=O)/C(=C/c3cccn3C)SC2=S)cc1` was 6.51%.
The value for `N#CC1(C#N)C(c2ccccc2)OC23CCCCC2C1(C#N)C(=N)O3` (stereo not drawn) was 0.982%.
The value for `O=C([O-])/C=C1\CCCc2ccccc2C1O.[Na+]` (stereo not drawn) was 16.4%; that for `O=C(CSc1nccc(-c2cccs2)n1)Nc1ccc(F)c(Cl)c1` was 7.91%.
On to `CCC(C)(C)c1nnc(NC(=O)C2CCN(C(=O)c3ccco3)CC2)s1`, for which the “hERG current change (%, negative = inhibition) at 1uM” value came to 11.4%.
The value for `Cc1nnc(SCC(=O)N2CC(=O)Nc3ccccc32)n1C` was 17%; that for `CCSCCOC(=O)C1=C(C)NC(=O)NC1c1ccccc1` (stereo not drawn) was 5.88%; that for `COC(=O)C1=C(c2ccc(C(C)=O)cc2)C[C@@H]2CC[C@H]1N2C(=O)NCc1ccco1` was -4.1%.
In the case of `COc1cccc(CN(C)CC(=O)Nc2c(C)cccc2C(C)C)c1` it was 5.62%; in that of `O=C1CC(Cc2ccccc2)C(=O)N1c1ccc(Cl)cn1` (stereo not drawn), 3.14%; in that of `Cc1ccc(-n2c(N)c(S(=O)(=O)c3ccccc3)c3nc4ccccc4nc32)cc1`, -13.4%.
The value for `COC(=O)c1sc(NC(=O)C2CCCCC2C(=O)O)c(C(=O)OC)c1C` (stereo not drawn) was 18.1%.
As for `CCO[C@H]1OC(C(=O)NCc2ccccc2)=C[C@@H](C2CCCCC2)[C@@H]1CCCO`, the “hERG current change (%, negative = inhibition) at 1uM” value worked out at 9.95%.
In the case of `COc1cccc(C(=O)N2CCCN(C)CC2)c1OC` it was 7.14%; in that of `Cc1ccc(OCCC(=O)OCC(=O)NC2CCCC2)cc1`, 6.49%.
In the case of `CSc1ccc(S(=O)(=O)NCC(=O)OCCOc2ccccc2)cc1[N+](=O)[O-]` it was 8.29%; in that of `Cc1ccccc1OCc1n(CC(=O)OC2CC(C)CCC2C(C)C)c2ccccc2[n+]1C.[Cl-]` (stereo not drawn), -1.86%; in that of `Cc1ccc(CN2CCN(Cc3ccccc3)CC2)cc1`, -2.6%.
The value for `O=C(CSCCc1ccccn1)Nc1cccnc1` was 7.58%.
Consider `COc1ccccc1CNC(=O)/C(C#N)=C/c1ccc(OC)c(OC)c1OC`, for which the “hERG current change (%, negative = inhibition) at 1uM” value was found to be 11.7%.
In the case of `COc1ccc(CCNC(=O)c2c(O)c3c([nH]c2=O)CCCC3)cc1` it was 8.46%; in that of `C=C(C)c1cccc(C(C)(C)NC(=O)N2CCN(c3ccccn3)CC2)c1`, 1.68%.

The values are drawn from paper PMC4336329 (PLoS ONE, 2015).
